The values below come from the supplement of paper PMC10369915.

The list shows a part of the results. No stated cut-off is given here; in the data, active = 3.2 or more and inactive = the rest. Most of these values are background signal.
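Further: displayed peptides selected on beads carrying the immobilized SH2 domain, with library peptides lacking any tyrosine serving as negative controls.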

The target of the first experiment is SHP2 C-SH2 domain E139D. Nature of the experiment: enrichment score (SH2-bound / input frequency) (ratio); bacterial display of known human phosphotyrosine sites (pTyr-Var adds point mutants) read by sequencing; higher = stronger binding; tyrosines were phosphorylated by kinases first. The note with it: peptide library: Human pTyr.
For the molecule AEDSEIRYLSADSGD [TTF1_HUMAN_476], the enrichment score is inactive: 1.16.

Regarding VPEGHEYYRVREDGD [TYK2_HUMAN_1055], the enrichment score was inactive: 1.3.

GTTEEMKYVLGQLVG [TTK_HUMAN_811]: the enrichment score was inactive: 0.79.

In the case of ELTADFLYEEVHPKQ [TWF1_HUMAN_309], the enrichment score is inactive: 0.804.

On to APGPQDIYDVPPVRG [BCAR1_HUMAN_249], for which the enrichment score was inactive: 0.591.

For DDLEDEVYAQKMKYK [TPM2_HUMAN_261], the enrichment score was inactive: 1.18.

In the case of MEGKRSPYAGLQLGA [TRI29_HUMAN_106], the enrichment score is inactive: 0.873.

For the molecule SASQDPLYINIERAE [TYRO3_HUMAN_804], the enrichment score is inactive: 1.04.

On to DDLEDEVYAQKMKAK [TPM2_HUMAN_261_YA], for which the enrichment score was inactive: 1.01.

As for DDLEDELYAQKLKYK [TPM1_HUMAN_261], the enrichment score was inactive: 1.02.

As to KDNFDSFYSEVAELG [TRIO_HUMAN_2796], the enrichment score was inactive: 0.85.

In the case of KIASGDAYRQGCASK [TYRO3_HUMAN_686_YA], the enrichment score is inactive: 1.14.

For the molecule FGLSRKIYSGDYYRQ [TYRO3_HUMAN_681], the enrichment score was inactive: 1.25.

Turning to AVPEGHEYYRVREDG [TYK2_HUMAN_1054], the enrichment score is inactive: 1.15.

As for SVTAPSPYAQPSSTF [TP63_HUMAN_149], the enrichment score was inactive: 0.609.

In the case of DPGKNETYQYYGFSH [TRPV4_HUMAN_805], the enrichment score is inactive: 0.822.

Consider AKMLDHEYTTKEIFR [TOP1_HUMAN_268], for which the enrichment score is inactive: 0.803.

In the case of KIQVKALYDFLPREP [TXK_HUMAN_91], the enrichment score was inactive: 1.15.

The target of another experiment is SHP2 C-SH2 domain wild-type. Described as above. As to conditions: peptide library: Human pTyr.
Regarding AEDSEIRYLSADSGD [TTF1_HUMAN_476], the enrichment score is inactive: 1.76.

With VPEGHEYYRVREDGD [TYK2_HUMAN_1055], the enrichment score is inactive: 1.07.

With GTTEEMKYVLGQLVG [TTK_HUMAN_811], the enrichment score is inactive: 0.565.

As for ELTADFLYEEVHPKQ [TWF1_HUMAN_309], the enrichment score was inactive: 0.889.

Regarding APGPQDIYDVPPVRG [BCAR1_HUMAN_249], the enrichment score is inactive: 0.568.

With DDLEDEVYAQKMKYK [TPM2_HUMAN_261], the enrichment score is inactive: 1.02.

Consider MEGKRSPYAGLQLGA [TRI29_HUMAN_106], for which the enrichment score was inactive: 1.79.

As for SASQDPLYINIERAE [TYRO3_HUMAN_804], the enrichment score is inactive: 0.777.

On to DDLEDEVYAQKMKAK [TPM2_HUMAN_261_YA], for which the enrichment score was inactive: 0.818.

Consider DDLEDELYAQKLKYK [TPM1_HUMAN_261], for which the enrichment score is inactive: 1.1.

For KDNFDSFYSEVAELG [TRIO_HUMAN_2796], the enrichment score was inactive: 0.602.

As to KIASGDAYRQGCASK [TYRO3_HUMAN_686_YA], the enrichment score was inactive: 0.897.

Consider FGLSRKIYSGDYYRQ [TYRO3_HUMAN_681], for which the enrichment score is inactive: 1.15.

Take AVPEGHEYYRVREDG [TYK2_HUMAN_1054]: the enrichment score was inactive: 0.815.

SVTAPSPYAQPSSTF [TP63_HUMAN_149]: the enrichment score was inactive: 0.435.

Regarding DPGKNETYQYYGFSH [TRPV4_HUMAN_805], the enrichment score was inactive: 1.23.

As to AKMLDHEYTTKEIFR [TOP1_HUMAN_268], the enrichment score was inactive: 0.849.

With KIQVKALYDFLPREP [TXK_HUMAN_91], the enrichment score was inactive: 0.854.

The target in the next experiment is SHP2 N-SH2 domain L43F. The experiment is described as above. As to conditions: peptide library: Human pTyr.
Turning to AEDSEIRYLSADSGD [TTF1_HUMAN_476], the enrichment score is inactive: 1.08.

As to VPEGHEYYRVREDGD [TYK2_HUMAN_1055], the enrichment score is inactive: 0.824.

On to GTTEEMKYVLGQLVG [TTK_HUMAN_811], for which the enrichment score was inactive: 0.743.

On to ELTADFLYEEVHPKQ [TWF1_HUMAN_309], for which the enrichment score was inactive: 0.861.

As to APGPQDIYDVPPVRG [BCAR1_HUMAN_249], the enrichment score is inactive: 0.713.

DDLEDEVYAQKMKYK [TPM2_HUMAN_261]: the enrichment score was inactive: 1.26.

As for MEGKRSPYAGLQLGA [TRI29_HUMAN_106], the enrichment score is inactive: 0.58.

With SASQDPLYINIERAE [TYRO3_HUMAN_804], the enrichment score is inactive: 0.814.

As for DDLEDEVYAQKMKAK [TPM2_HUMAN_261_YA], the enrichment score is inactive: 1.04.

Consider DDLEDELYAQKLKYK [TPM1_HUMAN_261], for which the enrichment score is inactive: 1.01.

Consider KDNFDSFYSEVAELG [TRIO_HUMAN_2796], for which the enrichment score was inactive: 0.593.

As to KIASGDAYRQGCASK [TYRO3_HUMAN_686_YA], the enrichment score is inactive: 0.9.

Turning to FGLSRKIYSGDYYRQ [TYRO3_HUMAN_681], the enrichment score was inactive: 1.24.

AVPEGHEYYRVREDG [TYK2_HUMAN_1054]: the enrichment score was inactive: 0.76.

SVTAPSPYAQPSSTF [TP63_HUMAN_149]: the enrichment score was inactive: 0.604.

Turning to DPGKNETYQYYGFSH [TRPV4_HUMAN_805], the enrichment score is inactive: 0.811.

On to AKMLDHEYTTKEIFR [TOP1_HUMAN_268], for which the enrichment score is inactive: 0.741.

As for KIQVKALYDFLPREP [TXK_HUMAN_91], the enrichment score was inactive: 0.604.

The next experiment has as its target SHP2 N-SH2 domain T42A. The description is as above. As to conditions: peptide library: Human pTyr.
Consider AEDSEIRYLSADSGD [TTF1_HUMAN_476], for which the enrichment score was inactive: 1.09.

For the molecule VPEGHEYYRVREDGD [TYK2_HUMAN_1055], the enrichment score was inactive: 1.06.

As for GTTEEMKYVLGQLVG [TTK_HUMAN_811], the enrichment score is inactive: 0.532.

As for ELTADFLYEEVHPKQ [TWF1_HUMAN_309], the enrichment score is inactive: 0.595.

For APGPQDIYDVPPVRG [BCAR1_HUMAN_249], the enrichment score is inactive: 0.639.

Turning to DDLEDEVYAQKMKYK [TPM2_HUMAN_261], the enrichment score was inactive: 1.39.

For the molecule MEGKRSPYAGLQLGA [TRI29_HUMAN_106], the enrichment score was inactive: 1.4.

Take SASQDPLYINIERAE [TYRO3_HUMAN_804]: the enrichment score is inactive: 0.789.

Consider DDLEDEVYAQKMKAK [TPM2_HUMAN_261_YA], for which the enrichment score is inactive: 0.908.

On to DDLEDELYAQKLKYK [TPM1_HUMAN_261], for which the enrichment score is inactive: 0.78.

As to KDNFDSFYSEVAELG [TRIO_HUMAN_2796], the enrichment score was inactive: 0.802.

On to KIASGDAYRQGCASK [TYRO3_HUMAN_686_YA], for which the enrichment score is inactive: 1.03.

Turning to FGLSRKIYSGDYYRQ [TYRO3_HUMAN_681], the enrichment score is inactive: 1.12.

For the molecule AVPEGHEYYRVREDG [TYK2_HUMAN_1054], the enrichment score was inactive: 0.941.

For SVTAPSPYAQPSSTF [TP63_HUMAN_149], the enrichment score is inactive: 0.524.

Consider DPGKNETYQYYGFSH [TRPV4_HUMAN_805], for which the enrichment score is inactive: 0.939.

As for AKMLDHEYTTKEIFR [TOP1_HUMAN_268], the enrichment score was inactive: 0.804.

Regarding KIQVKALYDFLPREP [TXK_HUMAN_91], the enrichment score is inactive: 0.761.

A further experiment concerns the target SHP2 N-SH2 domain T52S. The description is as above. As to conditions: peptide library: Human pTyr.
As to AEDSEIRYLSADSGD [TTF1_HUMAN_476], the enrichment score is inactive: 1.02.

On to VPEGHEYYRVREDGD [TYK2_HUMAN_1055], for which the enrichment score is inactive: 1.1.

For GTTEEMKYVLGQLVG [TTK_HUMAN_811], the enrichment score is inactive: 0.614.

In the case of ELTADFLYEEVHPKQ [TWF1_HUMAN_309], the enrichment score was inactive: 0.791.

On to APGPQDIYDVPPVRG [BCAR1_HUMAN_249], for which the enrichment score is inactive: 0.403.

In the case of DDLEDEVYAQKMKYK [TPM2_HUMAN_261], the enrichment score was inactive: 1.09.

Take MEGKRSPYAGLQLGA [TRI29_HUMAN_106]: the enrichment score is inactive: 0.816.

With SASQDPLYINIERAE [TYRO3_HUMAN_804], the enrichment score is inactive: 1.16.

In the case of DDLEDEVYAQKMKAK [TPM2_HUMAN_261_YA], the enrichment score was inactive: 1.03.

For DDLEDELYAQKLKYK [TPM1_HUMAN_261], the enrichment score was inactive: 0.942.

For KDNFDSFYSEVAELG [TRIO_HUMAN_2796], the enrichment score was inactive: 0.754.

In the case of KIASGDAYRQGCASK [TYRO3_HUMAN_686_YA], the enrichment score was inactive: 1.05.

Regarding FGLSRKIYSGDYYRQ [TYRO3_HUMAN_681], the enrichment score is inactive: 1.32.

Turning to AVPEGHEYYRVREDG [TYK2_HUMAN_1054], the enrichment score was inactive: 0.854.

For SVTAPSPYAQPSSTF [TP63_HUMAN_149], the enrichment score was inactive: 0.527.

On to DPGKNETYQYYGFSH [TRPV4_HUMAN_805], for which the enrichment score was inactive: 0.672.

As for AKMLDHEYTTKEIFR [TOP1_HUMAN_268], the enrichment score is inactive: 0.958.

KIQVKALYDFLPREP [TXK_HUMAN_91]: the enrichment score is inactive: 0.962.

A further experiment deals with SHP2 N-SH2 domain wild-type. The description is as above. The note with it: peptide library: Human pTyr.
As to AEDSEIRYLSADSGD [TTF1_HUMAN_476], the enrichment score was inactive: 1.13.

With VPEGHEYYRVREDGD [TYK2_HUMAN_1055], the enrichment score is inactive: 1.61.

Regarding GTTEEMKYVLGQLVG [TTK_HUMAN_811], the enrichment score is inactive: 0.6.

Regarding ELTADFLYEEVHPKQ [TWF1_HUMAN_309], the enrichment score is inactive: 1.08.

Regarding APGPQDIYDVPPVRG [BCAR1_HUMAN_249], the enrichment score was inactive: 0.43.

As to DDLEDEVYAQKMKYK [TPM2_HUMAN_261], the enrichment score is inactive: 1.49.

Take MEGKRSPYAGLQLGA [TRI29_HUMAN_106]: the enrichment score was inactive: 0.837.

For the molecule SASQDPLYINIERAE [TYRO3_HUMAN_804], the enrichment score is inactive: 1.03.

For the molecule DDLEDEVYAQKMKAK [TPM2_HUMAN_261_YA], the enrichment score is inactive: 1.01.

As for DDLEDELYAQKLKYK [TPM1_HUMAN_261], the enrichment score is inactive: 0.847.

For KDNFDSFYSEVAELG [TRIO_HUMAN_2796], the enrichment score is inactive: 0.494.

As to KIASGDAYRQGCASK [TYRO3_HUMAN_686_YA], the enrichment score was inactive: 0.989.

FGLSRKIYSGDYYRQ [TYRO3_HUMAN_681]: the enrichment score is inactive: 1.24.

Take AVPEGHEYYRVREDG [TYK2_HUMAN_1054]: the enrichment score is inactive: 0.815.

Regarding SVTAPSPYAQPSSTF [TP63_HUMAN_149], the enrichment score was inactive: 0.533.

For DPGKNETYQYYGFSH [TRPV4_HUMAN_805], the enrichment score is inactive: 0.648.

In the case of AKMLDHEYTTKEIFR [TOP1_HUMAN_268], the enrichment score is inactive: 0.743.

For the molecule KIQVKALYDFLPREP [TXK_HUMAN_91], the enrichment score was inactive: 0.756.
